Laboratory results: a collection of fitness landscapes (doi:10.1016/j.celrep.2020.107928)
The full ranking holds about 81,000 sequences; the median of “one-hybrid fitness for binding NBS DNA” is about -0.1, and the highest 2% start at about 0.36. This is one part of the list.

B1: Caulobacter ParB omega fusion; a variant is named by its letters at X, in order, B8GW30 (parent)
chain: MESVVVGEPGMSEGRRGLGRGLSALLGEVDAAPAQAPGEQLGGSREAPIEILQRNPDQPRRTFREEDLEDLSNSIREKGVLQPILVRPSPDTAGEYQIVAGERAWRAAQRAGLKTVPIMVRELDDLAVLEIGIIENVQRADLNVLEEALSYKVLMEKFERTQENIAQTIGKSXSHVANXMRLLXLPDEVQSYLVSGELTAXHARAIAAAADPVALAKQIIEGGLSVRETEALARKAPNLSAGKSKGGRPPRVKDTDTQALESDLSSVLGLDVSIDHRGSTGTLTITYATLEQLDDLCNRLTRGI

Variants of: B1
Assay: one-hybrid fitness for binding NBS DNA (the Noc-binding site; scaled: cognate 1, non-cognate 0); higher = stronger binding
Details: with NBS DNA site
Summary of the method: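 Fitness here means the log change in variant-to-wild-type read ratio between plasmids sequenced before and after selection. That scale was set so cognate equals 1 and non-cognate equals 0. The selection was a bacterial one-hybrid screen of Caulobacter ParB libraries, four specificity codons randomised, in E. coli USO carrying a HIS3 reporter with the site 19 bp from the promoter, grown 48 hours at 37°C on M9-minus-histidine with 0.1 mM IPTG and 5 mM 3-AT.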

| Variant | one-hybrid fitness for binding NBS DNA |
| --- | --- |
| LLQS | ≤ 0.2 |
| QKYR | 0.505 |
| QERC | ≤ 0.2 |
| KWES | ≤ 0.2 |
| GLFG | ≤ 0.2 |
| RPGQ | ≤ 0.2 |
| TLNS | ≤ 0.2 |
| VDKA | ≤ 0.2 |
| YFFG | ≤ 0.2 |
| YLKR | ≤ 0.2 |
| QYSR | 0.499 |
| TIYC | ≤ 0.2 |
| TPNP | ≤ 0.2 |
| RISE | ≤ 0.2 |
| YSLC | ≤ 0.2 |
| EALW | ≤ 0.2 |
| WYVS | ≤ 0.2 |
| IARL | ≤ 0.2 |
| TAYM | ≤ 0.2 |
| HSPV | ≤ 0.2 |
| QKNF | ≤ 0.2 |
| KHTI | ≤ 0.2 |
| TGSK | ≤ 0.2 |
| RSED | ≤ 0.2 |
| HTAV | ≤ 0.2 |
| RYQR | 0.44 |

| Variant | one-hybrid fitness for binding NBS DNA |
| --- | --- |
| ETKT | ≤ 0.2 |
| EARR | 0.284 |
| RMNP | ≤ 0.2 |
| AVHK | ≤ 0.2 |
| QAID | ≤ 0.2 |
| RAHE | ≤ 0.2 |
| GYRH | ≤ 0.2 |
| QCLH | ≤ 0.2 |
| RVLP | ≤ 0.2 |
| LQQT | ≤ 0.2 |
| KMPW | ≤ 0.2 |
| LSSV | ≤ 0.2 |
| SWMR | ≤ 0.2 |
| KVTV | ≤ 0.2 |
| VRAF | ≤ 0.2 |
| MMPN | ≤ 0.2 |
| LQCR | ≤ 0.2 |
| RPGA | ≤ 0.2 |
| ASMY | ≤ 0.2 |
| FALL | ≤ 0.2 |
| LLVN | ≤ 0.2 |
| LEHH | ≤ 0.2 |
| GRAT | ≤ 0.2 |
| IRIG | ≤ 0.2 |
| RTIC | ≤ 0.2 |
| FNSL | ≤ 0.2 |

| Variant | one-hybrid fitness for binding NBS DNA |
| --- | --- |
| VSTR | ≤ 0.2 |
| WMFT | ≤ 0.2 |
| CPNE | ≤ 0.2 |
| DTHT | ≤ 0.2 |
| EPTQ | ≤ 0.2 |
| RMAM | ≤ 0.2 |
| HINR | ≤ 0.2 |
| NFDD | ≤ 0.2 |
| AFVW | ≤ 0.2 |
| VWGV | ≤ 0.2 |
| NHPQ | ≤ 0.2 |
| QATA | ≤ 0.2 |
| QGNL | ≤ 0.2 |
| AKDS | ≤ 0.2 |
| LFKG | ≤ 0.2 |
| WDTK | ≤ 0.2 |
| QGNQ | ≤ 0.2 |
| RTTV | ≤ 0.2 |
| TQLT | ≤ 0.2 |
| QIIR | ≤ 0.2 |
| QPDR | ≤ 0.2 |
| KTGC | ≤ 0.2 |
| MVVQ | ≤ 0.2 |
| MCLT | ≤ 0.2 |
| WRYF | ≤ 0.2 |
| AQLA | ≤ 0.2 |

| Variant | one-hybrid fitness for binding NBS DNA |
| --- | --- |
| PHSK | ≤ 0.2 |
| QPTR | ≤ 0.2 |
| ATII | ≤ 0.2 |
| REAE | ≤ 0.2 |
| RQLA | ≤ 0.2 |
| HVYS | ≤ 0.2 |
| PMVG | ≤ 0.2 |
| FKTS | ≤ 0.2 |
| VCTT | ≤ 0.2 |
| NCHR | ≤ 0.2 |
| AMPQ | ≤ 0.2 |
| AHRY | ≤ 0.2 |
| LIAD | ≤ 0.2 |
| WRAT | ≤ 0.2 |
| QKYY | ≤ 0.2 |
| KWTY | ≤ 0.2 |
| MPVG | ≤ 0.2 |
| DLKV | ≤ 0.2 |
| NPSA | ≤ 0.2 |
| EEDN | ≤ 0.2 |
| TYAE | ≤ 0.2 |
| QLDG | ≤ 0.2 |
| NRVA | ≤ 0.2 |
| CAID | ≤ 0.2 |
| FSDR | ≤ 0.2 |
| STPL | ≤ 0.2 |

| Variant | one-hybrid fitness for binding NBS DNA |
| --- | --- |
| CVYY | ≤ 0.2 |
| DPPF | ≤ 0.2 |
| RGSK | ≤ 0.2 |
| QSER | 0.285 |
| QACK | ≤ 0.2 |
| HINS | ≤ 0.2 |
| PRAM | ≤ 0.2 |
| LRVS | ≤ 0.2 |
| CSVN | ≤ 0.2 |
| LVGR | ≤ 0.2 |
| TSGT | ≤ 0.2 |
| VPES | ≤ 0.2 |
| AGGC | ≤ 0.2 |
| FHEF | ≤ 0.2 |
| PTAY | ≤ 0.2 |
| SRTV | ≤ 0.2 |
| KHQG | ≤ 0.2 |
| DWHD | ≤ 0.2 |
| LTQC | ≤ 0.2 |
| QEAL | ≤ 0.2 |
| EEAR | ≤ 0.2 |
| YFAR | ≤ 0.2 |
| KMHR | ≤ 0.2 |
| PLLL | ≤ 0.2 |
| MMKG | ≤ 0.2 |
| LCTD | ≤ 0.2 |

| Variant | one-hybrid fitness for binding NBS DNA |
| --- | --- |
| GDGA | ≤ 0.2 |
| KQER | ≤ 0.2 |
| PAQR | ≤ 0.2 |
| CLRL | ≤ 0.2 |
| NPSV | ≤ 0.2 |
| QSKN | 0.359 |
| LKDP | ≤ 0.2 |
| DDYL | ≤ 0.2 |
| SQWT | ≤ 0.2 |
| QLPL | ≤ 0.2 |
| NMGP | ≤ 0.2 |
| ATVC | ≤ 0.2 |
| TQCT | ≤ 0.2 |
| SEAY | ≤ 0.2 |
| CACR | ≤ 0.2 |
| RDWS | ≤ 0.2 |
| TRKC | ≤ 0.2 |
| LTSL | ≤ 0.2 |
| PLNL | ≤ 0.2 |
| PSEN | ≤ 0.2 |
| RQYT | 0.353 |
| HSAS | ≤ 0.2 |
| HAER | ≤ 0.2 |
